# Where a chain is given by its changes, count along the chain named. The list shows a part of the results.
# B1: chr8:104444897:104444898:+_ENSG00000164934_ENST00000297579|hu_mus|FALSE|FALSE (ssRNA)
# RNA: GGGAGUUCUACAGUCCGACGAUCUGCAGUAAAAUUGAAAGCUUCCAUAGGGUUCCAACAGAUUGUAUUUGUCCUCAUUUCCAGGAUAACCUUUUUCAAAGGAGUAGCUUGCCGCAUAUCAUACAGUACUAUAUUCCUAUCAGACAACAGAGGAUUGAGCAUCA
# B2: chr2:198351390:198351391:-_ENSG00000144381_ENST00000345042|hu_hu|hu_hu_hu_mus_False|38_108 (ssRNA)
# RNA: GGGAGUUCUACAGUCCGACGAUCUCAUUCUCACUCUCCACAGAAAGGCUGCUUCUGAACUCUCAUGUGGUGACACAGCGCUACAGUCCUGAUGCUCACAGAAUAGUAGAGAUGCCUCAGUGAUUUAAGUUGAAAGCAGGACACCAACAGAGGAUUGAGCAUCA
# B3: chr11:51414962:51414963:-_ENSMUSG00000020358_ENSMUST00000074669|mus_hu|FALSE|FALSE (ssRNA)
# RNA: GGGAGUUCUACAGUCCGACGAUCGUAUGGCUUGUAGUUAUUCUGAUGGCCACCACGUCGCUGGCUCUUGCCGUAGUUUGUACUACCCUGACUGUAGUCGUAGCCGGGGCCGUAGCCGUAAUAGCCAUAGGGCGAGUAGUCGUACAACAGAGGAUUGAGCAUCA
# B4: 123983550_123983670_1669_CDS_ENSG00000168916_ENST00000504926|human|control|control (ssRNA)
# RNA: GGGAGUUCUACAGUCCGACGAUCGGAGUCCUCUAGUUUCCCCAGCUUGGCAUCCAUUUUUGGGCUUCCCGUCUCUUUCCCUUCUUUGUCCUUUAGCUUUCGCUUCUCCUUUUUCUUUUUGUCUUUGAGUGACACCAGAGCUGGCAACAGAGGAUUGAGCAUCA
# B5: chr11:10819206:10819207:-_ENSG00000110321_ENST00000525681|hu_hu|motif|central (ssRNA)
# RNA: GGGAGUUCUACAGUCCGACGAUCUGGUAGACUAUGAUUAAGACAUUACACUACAAAAAAACCUUAUGCAGAAGGAAAUCCGGACUGACGUGCUUCUGCUUUAAAUAUUGUGAAAACAUUACAGCGGAAUGAAUUUUCGCAGUGCAACAGAGGAUUGAGCAUCA
# B6: chr17:57762449:57762450:+_ENSG00000141367_ENST00000269122|hu_mus|motif|central (ssRNA)
# RNA: GGGAGUUCUACAGUCCGACGAUCUUCGUGUUUUUCCAAACGCUGAGCAAGUGAGAUGUUGUCAAAGUUGUCAUAAGCAUCGGUUGAUGUUCGCAGAGCCUGGUAAUCUUCUUCAGUAAUAAAGAGGUUGUUCAGUGAUUCAUUCAACAGAGGAUUGAGCAUCA
# B7: chrX:77160730:77160731:+_ENSG00000131174_ENST00000481445|hu_hu|motif|central (ssRNA)
# RNA: GGGAGUUCUACAGUCCGACGAUCUUACUGAUUCCUCCAUUCCUUUGGGGUAACUCUGCCAACAGGGGACAGGUUCCAUUCGGUUCCGACUUGUGUUGCUACAUAUGUCCAUGUAACAAUACAGAAAGUGGCUCCACUAGCUAACAACAGAGGAUUGAGCAUCA
# B8: chr11:10819206:10819207:-_ENSG00000110321_ENST00000525681|hu_hu|FALSE|FALSE (ssRNA)
# RNA: B5 RNA with G81U, G82A
# B9: chr9:96246283:96246284:-_ENSMUSG00000032412_ENSMUST00000034983|mus_mus|motif|central (ssRNA)
# RNA: GGGAGUUCUACAGUCCGACGAUCCUGGAGCAUGGCCCACAUUGUGAAUGUGAAGAGUGCAGCCAAGAACCCAUAAAAAACGGGGUAGAAGAGCAAGAUCAGACCCCAGCUCUUGGAGGUGCGCCCCAGAAACUCUCCGCUGCUCAACAGAGGAUUGAGCAUCA
# B10: 118363939_118365411_5255_CDS_ENSG00000118058_ENST00000534358|human|control|control (ssRNA)
# RNA: GGGAGUUCUACAGUCCGACGAUCUUGCCGAAUGAAGAAGGACUUGACCAUGCUGUUGGCUUUUUUAAUUUCUGGCUGUCCUCCAUCUGAAUUAAUGGCUGCUUGAAUGAUCUUCACAAUAUCAUCACUGAACUCCAACACAGACAACAGAGGAUUGAGCAUCA
# B11: chr10:1038518:1038519:+_ENSG00000107937_ENST00000545048|hu_hu|hu_hu_hu_mus_False|1_58 (ssRNA)
# RNA: GGGAGUUCUACAGUCCGACGAUCCAGUCUGUCAUGGUAAUUCUGUUGAGUAAAUUUGACUUUUCUCAUAUAAAAAUGUCUAAUGCGAUGAAUUUGAUAAUGUUUAUGAAUAACCGUUGGAGUCUUUCGUUGAGUCUUCGACAACAACAGAGGAUUGAGCAUCA
# B12: chrX:71549762:71549763:+_ENSMUSG00000019087_ENSMUST00000019231|mus_mus|mus_mus_mus_hu_False|1_8 (ssRNA)
# RNA: GGGAGUUCUACAGUCCGACGAUCAAACCCGUGUACUUCUUAUUGUUAGCACAACAUCACCAGAAAACGAUAACGACAGCCAAGCAGGACAGACAGUUAAGUAGUACUUCCACACUCCCAAACUCAGAGGAACCUCAAGUUCAUCAACAGAGGAUUGAGCAUCA
# B13: 33323112_33323610_1834_CDS_ENSG00000005156_ENST00000378526|human|control|control (ssRNA)
# RNA: GGGAGUUCUACAGUCCGACGAUCAUCCUGGAAGGCUGCUUUCUUGUGUACUCCCAGAGUCCCAAAGGGCAGUGGUUUGCCUGUCUUGUUGUCAAUCAGAAGCACUUCAGAAUCCAAGAUCAUGCUGUGGCCCCCAGGAAAAGCCAACAGAGGAUUGAGCAUCA
# B14: chr2:125074910:125074911:+_ENSMUSG00000027203_ENSMUST00000082122|mus_mus|motif|central (ssRNA)
# RNA: GGGAGUUCUACAGUCCGACGAUCCUUUACAGCCAAGCCAGAACGUGGAGCUACUCUUCCAUAGCACCCAGAAGGGACAGCGGUCUGAAUGUCUGUCUUCACGAUGGCUUUCUCCAUGGGUGAUAUUGUAUAAUCAUAGGCACUCAACAGAGGAUUGAGCAUCA
# B15: chrX:71549762:71549763:+_ENSMUSG00000019087_ENSMUST00000019231|mus_mus|mus_mus_mus_hu_False|1_68 (ssRNA)
# RNA: GGGAGUUCUACAGUCCGACGAUCAAACCCGUGUACUUCUUAUUGUUAGCACAACAUCACCAGAAAAAAAACAUAACAGCCAAGCAGGACAGACAGUUAAGUAGUACUUCCACACUCCCAAACUCAGGGAGCCCUAUAGUUCAUCAACAGAGGAUUGAGCAUCA
# B16: chr5:179044645:179044646:-_ENSG00000169045_ENST00000393432|hu_hu|FALSE|FALSE (ssRNA)
# RNA: GGGAGUUCUACAGUCCGACGAUCUACUCUGCCAUCAGGACCAAUUUCAAUGUGUACUCUCACAGGGUUGAGCGGUGAAAAAAAAUUAUAAAUGUCAUUCUCAGUAGCUCUGUAAGGUAAUCCCCGCAUGUGUACACAGUGUCCCAACAGAGGAUUGAGCAUCA
# B17: chr2:126475859:126475860:-_ENSMUSG00000027361_ENSMUST00000110424|mus_hu|motif|central (ssRNA)
# RNA: GGGAGUUCUACAGUCCGACGAUCAGUUUCUGAAGAAUUGGACAAUGGAGCAGAUGCUUCAGCUAAGGCAGCUAAUGUAGCGGAUACUGAUGUAGAAGAGUUUCCAAACUGAACAGCAGAUACACCCGUUUCAUCUGUUGCCUUCAACAGAGGAUUGAGCAUCA
# B18: chr13:41369856:41369857:+_ENSMUSG00000091264_ENSMUST00000165561|mus_mus|FALSE|FALSE (ssRNA)
# RNA: GGGAGUUCUACAGUCCGACGAUCUUGGCCUUGAAGCUCAUUUCCCGUAUGGAGCAGACAACACUAGAAGGUUCAUCAGUCUAUCACUUCUCUAGUUAACAGUCCAAAGUUCGGGUAGAACAAACAUGGACUCCUGGCAAGAGGCAACAGAGGAUUGAGCAUCA
# B19: chr2:129997582:129997583:-_ENSMUSG00000027404_ENSMUST00000103199|mus_hu|FALSE|FALSE (ssRNA)
# RNA: GGGAGUUCUACAGUCCGACGAUCAGGGGGCCCUGUAAGGGAAACCAGACAAUCCCAUGAGACUCCACGAACAACAGCAUAAGAAACAAACAGGUCUGUGGUAACGUGGCCCUGAGGAAUCGAGCCCACGCCUCUGCGGAGCUACAACAGAGGAUUGAGCAUCA
# B20: 195000014_195000134_2550_3pUTR_ENSG00000114331_ENST00000326793|human|control|control (ssRNA)
# RNA: GGGAGUUCUACAGUCCGACGAUCAGGGGGUCACCAGAUUUCAUAUUUUCCCAUUUUUAAAAAAAUUCAGAAUUUCUGUGAAUCUUGCUGGAAACGAUUUAGUUUCUCUGGAUUAUUGGAUGCCAUUUGGGAAAAAUCACGAAACAACAGAGGAUUGAGCAUCA
# B21: 116383528_116384607_2571_3pUTR_ENSMUSG00000029516_ENSMUST00000051704|mouse|control|control (ssRNA)
# RNA: GGGAGUUCUACAGUCCGACGAUCAGCUGCUGCUCAGCAUUGAUCUUCUCCAGUUUGGAAUAUUCUCCCACUUCAGGCUUCCCUUGGUCCUUAGCCUUCAUCAGUUUGUGCUGACAUUCGUUUGCCUUCCGCUUGAAUUCCUCGCAACAGAGGAUUGAGCAUCA
# B22: 15271562_15271682_6892_CDS_ENSG00000074181_ENST00000263388|human|control|control (ssRNA)
# RNA: GGGAGUUCUACAGUCCGACGAUCAAGUGGCUGGGCAGGCAGUGCCCCAGUGGUGGUGGCCAUGGCCCCAGUGGCAGUGGCUGGGCUAGGCGUGGAUUCGGACCAGUCUGAGAGGGAGGGAGGUGAGGGGCUGGCCCAGUGCUCCAACAGAGGAUUGAGCAUCA
# Target: T1, UNK ZnF1-3 (human, UniProt Q9C0B0 31-174)
# T1 sequence: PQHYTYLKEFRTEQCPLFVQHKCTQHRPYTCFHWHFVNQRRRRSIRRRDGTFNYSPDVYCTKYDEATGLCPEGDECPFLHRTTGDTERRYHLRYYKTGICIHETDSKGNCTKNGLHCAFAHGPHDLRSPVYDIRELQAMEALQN
# Test: nsRBNS (natural sequence RNA bind-n-seq); RBNS binding buffer (assumed for nsRBNS): 25 mM Tris pH 7.5, 150 mM KCl, 3 mM MgCl2, 0.01% Triton X-100, 500 ug/ml BSA, 20 U/ml SUPERase-In, 4 C; UNK is unkempt and MSI1 is Musashi-1; names of the RNAs are library labels; protein concentration not given here; high values mean tight binding
row,Binder,binding signal
1,B1,1.48 enrichment R
2,B2,1.36 enrichment R
3,B3,0.428 enrichment R
4,B4,0.272 enrichment R
5,B5,0.78 enrichment R
6,B6,0.712 enrichment R
7,B7,0.594 enrichment R
8,B8,0.675 enrichment R
9,B9,1.59 enrichment R
10,B10,0.975 enrichment R
11,B11,0.976 enrichment R
12,B12,1.28 enrichment R
13,B13,0.871 enrichment R
14,B14,0.874 enrichment R
15,B15,1.86 enrichment R
16,B16,2.53 enrichment R
17,B17,0.512 enrichment R
18,B18,1.1 enrichment R
19,B19,1.46 enrichment R
20,B20,0.981 enrichment R
21,B21,0.346 enrichment R
22,B22,1.75 enrichment R

# Reference: publication PMC12136788
